The results in this text go back to article PMC9371921, “Strand annealing and motor driven activities of SMARCAL1 and ZRANB3 are stimulated by RAD51 and the paralog complex” (Nucleic Acids Research, 2022).

The target of assay [1] is T1, RAD51 paralog complex RAD51B-RAD51C-RAD51D-XRCC2 (BCDX2) (human) (UniProt O15315+O43502+O75771+O43543).
T1 sequence 1: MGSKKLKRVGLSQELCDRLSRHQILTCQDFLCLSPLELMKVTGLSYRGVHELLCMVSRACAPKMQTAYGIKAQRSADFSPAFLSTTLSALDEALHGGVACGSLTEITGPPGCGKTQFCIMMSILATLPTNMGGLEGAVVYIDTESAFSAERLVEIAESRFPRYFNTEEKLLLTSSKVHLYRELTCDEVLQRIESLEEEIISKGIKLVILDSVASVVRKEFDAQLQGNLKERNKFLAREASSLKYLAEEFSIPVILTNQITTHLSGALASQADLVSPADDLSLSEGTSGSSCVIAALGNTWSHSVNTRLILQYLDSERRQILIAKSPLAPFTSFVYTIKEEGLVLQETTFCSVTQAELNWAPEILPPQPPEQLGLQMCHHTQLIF
T1 sequence 2: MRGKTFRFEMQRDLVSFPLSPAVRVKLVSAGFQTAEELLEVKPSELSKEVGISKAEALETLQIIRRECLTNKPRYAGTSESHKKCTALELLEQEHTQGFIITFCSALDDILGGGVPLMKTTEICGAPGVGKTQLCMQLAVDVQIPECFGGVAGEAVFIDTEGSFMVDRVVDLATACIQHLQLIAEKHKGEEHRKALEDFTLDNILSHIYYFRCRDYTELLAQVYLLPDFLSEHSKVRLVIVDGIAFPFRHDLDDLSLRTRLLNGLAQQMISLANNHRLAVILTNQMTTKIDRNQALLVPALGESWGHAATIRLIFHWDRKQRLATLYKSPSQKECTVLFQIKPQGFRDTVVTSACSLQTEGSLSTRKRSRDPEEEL
T1 sequence 3: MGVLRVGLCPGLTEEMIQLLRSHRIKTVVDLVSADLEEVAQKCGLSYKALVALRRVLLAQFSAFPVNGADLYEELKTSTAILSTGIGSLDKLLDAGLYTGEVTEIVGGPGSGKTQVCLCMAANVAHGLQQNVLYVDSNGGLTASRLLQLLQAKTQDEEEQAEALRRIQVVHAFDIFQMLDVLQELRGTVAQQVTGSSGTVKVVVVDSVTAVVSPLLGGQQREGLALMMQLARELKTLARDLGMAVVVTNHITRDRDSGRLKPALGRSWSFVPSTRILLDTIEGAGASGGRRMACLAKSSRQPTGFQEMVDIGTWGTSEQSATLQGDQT
T1 sequence 4: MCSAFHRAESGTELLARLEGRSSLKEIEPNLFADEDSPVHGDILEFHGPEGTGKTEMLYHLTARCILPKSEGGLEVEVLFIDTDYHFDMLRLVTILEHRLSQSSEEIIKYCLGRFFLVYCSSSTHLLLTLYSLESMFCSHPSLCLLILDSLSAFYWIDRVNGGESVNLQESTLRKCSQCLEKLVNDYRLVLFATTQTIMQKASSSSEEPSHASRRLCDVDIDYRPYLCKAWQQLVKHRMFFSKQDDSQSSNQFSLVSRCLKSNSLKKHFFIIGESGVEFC
The experiment in a line: pull-down; anti-His antibody on Dynabeads Protein G, bound to purified BCDX2 (1 μg, bait); purified SMARCAL1 or ZRANB3 (1 μg, prey) in IP buffer (25 mM Tris-HCl pH 7.5, 100 mM NaCl, 3 mM EDTA, 0.5 mM DTT, BSA), 1 h at 4°C; silver staining or Western blot with anti-FLAG and anti-His; both purified.

Assay [2] addresses T2, FLAG-ZRANB3 (human, UniProt Q5FWF4 1-1079).
T2 construct: also called ZRANB3 WT
T2 sequence (looked up): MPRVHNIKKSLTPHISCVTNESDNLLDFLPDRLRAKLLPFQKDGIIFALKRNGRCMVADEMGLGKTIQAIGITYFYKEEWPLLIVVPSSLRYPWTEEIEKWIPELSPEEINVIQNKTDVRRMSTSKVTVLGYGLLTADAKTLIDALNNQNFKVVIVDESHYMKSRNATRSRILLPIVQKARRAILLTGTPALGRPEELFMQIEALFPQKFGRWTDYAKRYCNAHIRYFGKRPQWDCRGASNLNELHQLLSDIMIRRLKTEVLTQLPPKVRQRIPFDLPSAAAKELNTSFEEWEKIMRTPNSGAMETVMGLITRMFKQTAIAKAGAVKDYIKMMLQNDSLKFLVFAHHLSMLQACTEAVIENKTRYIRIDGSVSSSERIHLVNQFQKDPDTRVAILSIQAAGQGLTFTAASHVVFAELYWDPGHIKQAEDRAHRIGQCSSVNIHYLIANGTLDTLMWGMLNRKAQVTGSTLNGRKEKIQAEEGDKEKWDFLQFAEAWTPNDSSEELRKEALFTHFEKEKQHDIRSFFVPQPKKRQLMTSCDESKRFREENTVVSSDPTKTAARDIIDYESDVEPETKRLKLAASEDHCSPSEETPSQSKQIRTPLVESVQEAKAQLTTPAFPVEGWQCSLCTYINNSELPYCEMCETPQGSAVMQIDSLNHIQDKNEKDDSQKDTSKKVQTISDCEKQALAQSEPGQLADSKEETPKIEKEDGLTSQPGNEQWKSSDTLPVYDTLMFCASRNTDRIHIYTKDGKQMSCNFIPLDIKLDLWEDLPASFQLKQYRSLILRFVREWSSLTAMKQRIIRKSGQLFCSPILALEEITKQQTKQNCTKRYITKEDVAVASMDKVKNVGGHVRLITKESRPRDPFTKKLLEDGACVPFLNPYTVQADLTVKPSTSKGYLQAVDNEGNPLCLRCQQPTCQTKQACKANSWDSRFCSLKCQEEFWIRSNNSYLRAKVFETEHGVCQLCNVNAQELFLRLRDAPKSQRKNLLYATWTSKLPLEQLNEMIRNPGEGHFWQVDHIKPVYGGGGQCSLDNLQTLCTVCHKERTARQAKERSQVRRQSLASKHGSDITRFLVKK
The experiment in a line: mass photometry; 2 μl (50 nM) protein solution added into 18 μl protein elution buffer; movie recorded for 1 min; Refeyn 2MP mass photometer, NativeMark size marker; both purified.

No constants are given. Whether binding was seen depends on the method and setting. Some results given as binding are weak or reduced against the parent protein; the word gives no strength. Where a sequence is shown, tags or fusion partners need not be part of it.

B1: FLAG-SMARCAL1 (enzyme, UniProt Q9NZC9 1-954)
chain: MSLPLTEEQRKKIEENRQKALARRAEKLLAEQHQRTSSGTSIAGNPFQAKQGPSQNFPRESCKPVSHGVIFKQQNLSSSSNADQRPHDSHSFQAKGIWKKPEEMPTACPGHSPRSQMALTGISPPLAQSPPEVPKQQLLSYELGQGHAQASPEIRFTPFANPTHKPLAKPKSSQETPAHSSGQPPRDAKLEAKTAKASPSGQNISYIHSSSESVTPRTEGRLQQKSGSSVQKGVNSQKGKCVRNGDRFQVLIGYNAELIAVFKTLPSKNYDPDTKTWNFSMNDYSALMKAAQSLPTVNLQPLEWAYGSSESPSTSSEGQAGLPSAPSLSFVKGRCMLISRAYFEADISYSQDLIALFKQMDSRRYDVKTRKWSFLLEEHSKLIAKVRCLPQVQLDPLPTTLTLAFASQLKKTSLSLTPDVPEADLSEVDPKLVSNLMPFQRAGVNFAIAKGGRLLLADDMGLGKTIQAICIAAFYRKEWPLLVVVPSSVRFTWEQAFLRWLPSLSPDCINVVVTGKDRLTAGLINIVSFDLLSKLEKQLKTPFKVVIIDESHFLKNSRTARCRAAMPVLKVAKRVILLSGTPAMSRPAELYTQIIAVKPTFFPQFHAFGLRYCDAKRMPWGWDYSGSSNLGELKLLLEEAVMLRRLKSDVLSQLPAKQRKIVVIAPGRINARTRAALDAAAKEMTTKDKTKQQQKDALILFFNRTAEAKIPSVIEYILDLLESGREKFLVFAHHKVVLDAITQELERKHVQHIRIDGSTSSAEREDLCQQFQLSERHAVAVLSITAANMGLTFSSADLVVFAELFWNPGVLIQAEDRVHRIGQTSSVGIHYLVAKGTADDYLWPLIQEKIKVLAEAGLSETNFSEMTESTDYLYKDPKQQKIYDLFQKSFEKEGSDMELLEAAESFDPGSASGTSGSSSQNMGDTLDESSLTASPQKKRRFEFFDNWDSFTSPL
B1: the binding entry in assay [1] is “binds”.

B2: FLAG-ZRANB3 (enzyme, UniProt Q5FWF4 1-1079)
chain: T2 sequence (looked up)
With B2, the figures for the binding result in assay [1] and in assay [2] were “binds” and “binds weakly”, respectively.
